In article PMC7508895 (Nanomedicine : nanotechnology, biology, and medicine, 2020):

Columns and labels:
[1] = biological target: the molecule itself; test: SEC-MALS
[2] = biological target: T1, CD99 (human (endogenous in MOLM-13, MV4-11, …, UniProt P14209 23-185)); test: flow cytometry on cells
T1 sequence (looked up): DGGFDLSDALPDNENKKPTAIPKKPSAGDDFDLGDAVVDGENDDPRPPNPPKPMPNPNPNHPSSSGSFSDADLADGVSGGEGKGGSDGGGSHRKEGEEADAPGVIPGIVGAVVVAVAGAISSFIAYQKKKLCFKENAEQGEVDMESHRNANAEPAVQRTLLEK

B1: α-CD99-A192 (scFv)
scFv: [about 100 residues not printed]SHKRFDYWGQGTLVTVSRGGGGSGGGGSGGGGSSELTQDPAVSVALGQTVRITCQGDSLRSYYASWYQQKPGQAPVLVIYGKNNRPSGIPDRFSGSSSGNTASLTITGAQAEDEADYYCNSSFPRTSSVVFGGGTKLTVLGLVPRGSGVPGAGVPGAGVPGAGVPGAGVPGAGVPGAGVPGAGVPGAGVPGAGVPGAGVPGAGVPGAGVPGAGVPGAGVPGAGVPGAGVPGAGVPGAGVPGAGVPGAGVPGAGVPGAGVPGAGVPGAGVPGAGVPGAGVPGAGVPGAGVPGAGVPGAGVPGAGVPGAGVPGAGVPGAGVPGAGVPGAGVPGAGVPGAGVPGAGVPGAGVPGAGVPGAGVPGAGVPGAGVPGAGVPGAGVPGAGVPGAGVPGAGVPGAGVPGAGVPGAGVPGAGVPGAGVPGAGVPGAGVPGAGVPGAGVPGAGVPGAGVPGAGVPGAGVPGAGVPGAGVPGAGVPGAGVPGAGVPGAGVPGAGVPGAGVPGAGVPGAGVPGAGVPGAGVPGAGVPGAGVPGAGVPGAGVPGAGVPGAGVPGAGVPGAGVPGAGVPGAGVPGAGVPGAGVPGAGVPGAGVPGAGVPGAGVPGAGVPGAGVPGAGVPGAGVPGAGVPGAGVPGAGVPGAGVPGAGVPGAGVPGAGVPGAGVPGAGVPGAGVPGAGVPGAGVPGAGVPGAGVPGAGVPGAGVPGAGVPGAGVPGAGVPGAGVPGAGVPGAGVPGAGVPGAGVPGAGVPGAGVPGAGVPGAGVPGAGVPGAGVPGAGVPGAGVPGAGVPGAGVPGAGVPGAGVPGAGVPGAGVPGAGVPGAGVPGAGVPGAGVPGAGVPGAGVPGAGVPGAGVPGAGVPGAGVPGAGVPGAGVPGAGVPGAGVPGAGVPGAGVPGAGVPGAGVPGAGVPGAGVPGAGVPGAGVPGAGVPGAGVPGAGVPGAGVPGAGVPGAGVPGAGVPGAGVPGAGVPGAGVPGAGVPGAGVPGAGVPGAGVPGAGVPGAGVPGAGVPGAGVPGAGVPGAGVPGAGVPGAGVPGAGVPGAGY
modifications: NHS-rhodamine label in the flow cytometry and confocal assays; no label told for DLS and SEC-MALS
- stoichiometry N [1]: 171 molecules per nanoworm
- fold binding (rhodamine MFI) at 1 μM, U937 cells [2]: 1.5 fold
- fold binding (rhodamine MFI) at 10 μM, U937 cells [2]: 1.9 fold
- fold binding (rhodamine MFI) over A192 at 1 μM, MOLM-13 cells [2]: 2.4 fold
- fold binding (rhodamine MFI) over A192 at 1 μM, MV4-11 cells [2]: 1.7 fold
- fold binding (rhodamine MFI) over A192 at 10 μM, MOLM-13 cells [2]: 3.1 fold
- fold binding (rhodamine MFI) over A192 at 10 μM, MV4-11 cells [2]: 2.8 fold
